The values that follow come from article PMC9867944 (Bioscience Reports, 2023).

This test deals with T1, anti-PD-1 Nb C12-Fc (Bactrian camel).
T1 construct: VHH C12 selected from a naive Bactrian camel phage display library; Nb C12 fused to the human IgG1 Fc fragment in plasmid pCZN1; about 40 kDa on SDS-PAGE; also called anti-PD-1 Nb-Fc; PD-1 C12 Nb-Fc
Nature of the test: far-Western, overlay or dot blot; Western blot: total protein of activated human T cells (RIPA lysate) on 10% SDS-PAGE, PVDF membrane probed with anti-PD-1 Nb-Fc (1:500) overnight at 4 C; HRP-conjugated antihuman IgG. The conditions noted are these: one partner purified. (In general: In western blotting, separated proteins are transferred to a membrane and probed.)

B1: PD-1 protein expressed on activated human T cells (receptor)
chain: not shown
notes: On fixed, permeabilised cells in the immunofluorescence; in a cell lysate resolved by SDS-PAGE in the Western blot; also called PD-1 protein on human CD4+ T cells
Consider B1, for which the binding result is on record as “binds”.
